Test results from the supplement of paper PMC12217912.
Some of the results follow. The full chains were built here from the parent and the listed change. Inactive controls read about 0.05.

B1: TEV protease; numbered along this chain (parent)
chain: MGESLFKGPRDYNPISSSICHLTNESDGHTTSLYGIGFGPFIITNKHLFRRNNGTLVVQSLHGVFKVKDTTTLQQHLVDGRDMIIIRMPKDFPPFPQKLKFREPQREERICLVTTNFQTKSMSSMVSDTSCTFPSGDGIFWKHWIQTKDGQCGSPLVSTRDGFIVGIHSASNFTNTNNYFTSVPKNFMELLTNQEAQQWVSGWRLNADSVLWGGHKVFMVKPEEPFQPVKEATQL

Variants of: B1
Assay: raw area under fraction-flipped curve 0-4 h after induction (AUC4h, not background-subtracted), DNA-recorder readout of cleavage of the substrate (dimensionless); higher = more cleavage of the substrate by the protease variant
Conditions: temperature: 34 °C; time window: 0-4 h after rhamnose induction
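Note: Bxb1 expression induced with 0.2% (w/v) L-rhamnose at OD600 near 0.5, cultures sampled hourly, flipped fraction per protease–substrate barcode pair counted by paired-end Illumina sequencing.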

Question: Which results are given for MGESLFKGPRDYNPISSSICHLTNESDGHTTSLYGIGFGPFIITNKHLFRRNNGTLVVQSLHGVFKVKDTTTLQQHLVDGRDMIIIRMPKDFPPFPQKLKFREPQREERICLVTTNFQTKSMSSMVSDTSCTFPSGDGIFWKHWIQTKDGQCGSPLVSTRDGFIVGIHSASNFTNTNNYFTSVPKNFMELLTNQEAQQWVSGWRLNADSVLWVGHKVFMVKPEEPFQPVKEATQL [G213V]?
Answer: area with substrate ENLCFQS: 0.0635; area with substrate ENLFFQS: 0.0971; area with substrate ENLGFQS: 0.0739; area with substrate ENLHFQS: 0.0636; area with substrate ENLKFQS: 0.0616; area with substrate ENLLFQS: 0.0525; area with substrate ENLNFQS: 0.0811

Question: Which results are given for MGESLFKGPRDYNPISSSICHLTNESDGHTTSLYGIGFGPFIITNKHLFRRNNGTLVVQSLHGVFKVKDTTTLQQHLVDGRDMIIIRMPKDFPPFPQKLKFREPQREERICLVTTNFQTKSMSSMVSDTSCTFPSGDGIFWKHWIQTKDGQCGSPLVSTRDGFIVGIHSASNFTNTNNYFTSVPKNFMELLTNQEAQQWVSGWRLNADSVLWGGHKVFMVKPEEPFQPVHEATQL [K230H]?
Answer: area with substrate ENLCFQS: 0.0682; area with substrate ENLDFQS: 0.0676; area with substrate ENLHFQS: 0.0693; area with substrate ENLKFQS: 0.0904; area with substrate ENLNFQS: 0.0772; area with substrate ENLPFQS: 0.0642; area with substrate ENLSFQS: 0.0859; area with substrate ENLWFQS: 0.0255

Question: Which “area with substrate ENLCFQS” value does the source give for MGESLFKGPRDYNPISSSICHLTNESDGHTTSLYGIGFGPFIITNKHLFRRNNGTLVVQSLHGVFKVKDTTTLQQHLVDGRDMIIIRMPKDFPPFPQKLKFREPQREERICLVTTNFQTKSMSSMVSDTSCTFPSGDGIFWKHWIQTKDGQCGSPLVSTRDGFIVGIHSASNFTNTNNYFTSVPKNFMELLTNQEAQQWVSGWRLNADSVLWGGHKVFMVKPEEHFQPVKEATQL [P225H] here?
Answer: The value was 0.0745.

Question: And the “area with substrate ENLFFQS” value?
Answer: The value was 0.0804.

Question: And the “area with substrate ENLHFQS” value?
Answer: The value was 0.0692.

Question: What about the “area with substrate ENLKFQS” value of the same variant?
Answer: Its value is 0.0719.

Question: And the “area with substrate ENLLFQS” value?
Answer: Its value is 0.0748.

Question: And the “area with substrate ENLMFQS” value?
Answer: Its value is 0.0695.

Question: What about the “area with substrate ENLNFQS” value of the same variant?
Answer: Its value is 0.076.

Question: And the “area with substrate ENLPFQS” value?
Answer: The value was 0.0551.

Question: And the “area with substrate ENLSFQS” value?
Answer: The value was 0.0613.

Question: Which results are given for MGESLFKGPRDYNPISSSICHLTNESDGHTTSLYGIGFGPFIITNKHLFRRNNGTLVVQSLHGVFKVKDTTTLQQHLVDGRDMIIIRMPKDFPPFPQKLKFREPQREERICLVTTNFQTKSMSSMVSDTSCTFPSGDGIFWKHWIQTKDGQCGSPLVSTRDGFIVGIHSASNFTNTNNYFTSVPKNFMELLTNQEAQQWVSGWRLNADSVLWGPHKVFMVKPEEPFQPVKEATQL [G214P]?
Answer: area with substrate ENLCFQS: 0.0517; area with substrate ENLDFQS: 0.0569; area with substrate ENLFFQS: 0.059; area with substrate ENLKFQS: 0.0563; area with substrate ENLNFQS: 0.0609; area with substrate ENLPFQS: 0.0334; area with substrate ENLSFQS: 0.0592; area with substrate ENLVFQS: 0.0418

Question: With MGESLFKGPRDYNPISSSICHLTNESDGHTTSLYGIGFGPFIITNKHLFRRNNGTLVVQSLHGVFKVKDTTTLQQHLVDGRDMIIIRMPKDFPPFPQKLKFREPQREERICLVTTNFQTKSMSSMVSDTSCTFPSGDGIFWKHWIQTKDGQCGSPLVSTRDGFIVGIHSASNFTNTNNYFTSVPKNFMELLTNQEAQQWVSGWRLNADSVLWGGHKVFMVKPEEPFQPAKEATQL [V229A] as the variant, how does the “area with substrate ENLCFQS” value read?
Answer: The value was 0.0863.

Question: And the “area with substrate ENLDFQS” value?
Answer: The value was 0.0761.

Question: And the “area with substrate ENLEFQS” value?
Answer: Its value is 0.0607.

Question: And the “area with substrate ENLFFQS” value?
Answer: Its value is 0.101.

Question: What about the “area with substrate ENLGFQS” value of the same variant?
Answer: The value was 0.0722.

Question: What about the “area with substrate ENLHFQS” value of the same variant?
Answer: Its value is 0.0648.

Question: What about the “area with substrate ENLIFQS” value of the same variant?
Answer: Its value is 0.0763.

Question: What about the “area with substrate ENLKFQS” value of the same variant?
Answer: The value was 0.0739.

Question: And the “area with substrate ENLNFQS” value?
Answer: Its value is 0.0707.

Question: What about the “area with substrate ENLPFQS” value of the same variant?
Answer: The value was 0.0466.

Question: What about the “area with substrate ENLQFQS” value of the same variant?
Answer: Its value is 0.0675.

Question: And the “area with substrate ENLRFQS” value?
Answer: The value was 0.0812.

Question: What about the “area with substrate ENLVFQS” value of the same variant?
Answer: Its value is 0.0747.

Question: What about the “area with substrate ENLWFQS” value of the same variant?
Answer: The value was 0.0532.

Question: Which “area with substrate ENLDFQS” value does the source give for MGESWFKGPRDYNPISSSICHLTNESDGHTTSLYGIGFGPFIITNKHLFRRNNGTLVVQSLHGVFKVKDTTTLQQHLVDGRDMIIIRMPKDFPPFPQKLKFREPQREERICLVTTNFQTKSMSSMVSDTSCTFPSGDGIFWKHWIQTKDGQCGSPLVSTRDGFIVGIHSASNFTNTNNYFTSVPKNFMELLTNQEAQQWVSGWRLNADSVLWGGHKVFMVKPEEPFQPVKEATQL [L5W] here?
Answer: Its value is 0.0639.

Question: What about the “area with substrate ENLEFQS” value of the same variant?
Answer: The value was 0.0547.

Question: What about the “area with substrate ENLFFQS” value of the same variant?
Answer: The value was 0.0901.

Question: What about the “area with substrate ENLHFQS” value of the same variant?
Answer: Its value is 0.0661.

Question: What about the “area with substrate ENLIFQS” value of the same variant?
Answer: The value was 0.0971.

Question: And the “area with substrate ENLLFQS” value?
Answer: The value was 0.0926.

Question: What about the “area with substrate ENLVFQS” value of the same variant?
Answer: Its value is 0.108.

Question: With MGESKFKGPRDYNPISSSICHLTNESDGHTTSLYGIGFGPFIITNKHLFRRNNGTLVVQSLHGVFKVKDTTTLQQHLVDGRDMIIIRMPKDFPPFPQKLKFREPQREERICLVTTNFQTKSMSSMVSDTSCTFPSGDGIFWKHWIQTKDGQCGSPLVSTRDGFIVGIHSASNFTNTNNYFTSVPKNFMELLTNQEAQQWVSGWRLNADSVLWGGHKVFMVKPEEPFQPVKEATQL [L5K] as the variant, how does the “area with substrate ENLDFQS” value read?
Answer: The value was 0.0634.

Question: And the “area with substrate ENLFFQS” value?
Answer: The value was 0.0975.

Question: And the “area with substrate ENLHFQS” value?
Answer: Its value is 0.0663.

Question: And the “area with substrate ENLKFQS” value?
Answer: The value was 0.0767.

Question: What about the “area with substrate ENLLFQS” value of the same variant?
Answer: The value was 0.0644.

Question: What about the “area with substrate ENLNFQS” value of the same variant?
Answer: The value was 0.0747.

Question: And the “area with substrate ENLPFQS” value?
Answer: The value was 0.0404.

Question: And the “area with substrate ENLRFQS” value?
Answer: Its value is 0.0786.

Question: What about the “area with substrate ENLSFQS” value of the same variant?
Answer: Its value is 0.0532.

Question: What about the “area with substrate ENLWFQS” value of the same variant?
Answer: The value was 0.0441.

Question: For MGESLFKGPRDYNPISSSICHLTNESDGHTTSLYGIGFGPFIITNKHLFRRNNGTLVVQSLHGVFKVKDTTTLQQHLVDGRDMIIIRMPKDFPPFPQKLKFREPQREERICLVTTNFQTKSMSSMVSDTSCTFPSGDGIFWKHWIQTKDGQCGSPLVSTRDGFIVGIHSASNFTNTNNYFTSVPKNFMELLTNQEAQQWVSGWRLNADSVLWGGHKVFMVKPEEPFQKVKEATQL [P228K], which “area with substrate ENLCFQS” value is on record?
Answer: The value was 0.0856.

Question: What about the “area with substrate ENLEFQS” value of the same variant?
Answer: Its value is 0.0661.

Question: And the “area with substrate ENLFFQS” value?
Answer: The value was 0.131.

Question: And the “area with substrate ENLHFQS” value?
Answer: The value was 0.0673.

Question: What about the “area with substrate ENLKFQS” value of the same variant?
Answer: Its value is 0.079.

Question: What about the “area with substrate ENLLFQS” value of the same variant?
Answer: The value was 0.0635.

Question: And the “area with substrate ENLMFQS” value?
Answer: Its value is 0.0808.

Question: What about the “area with substrate ENLNFQS” value of the same variant?
Answer: Its value is 0.0631.

Question: And the “area with substrate ENLPFQS” value?
Answer: Its value is 0.0391.

Question: And the “area with substrate ENLTFQS” value?
Answer: The value was 0.0493.

Question: What about the “area with substrate ENLWFQS” value of the same variant?
Answer: The value was 0.0627.

Question: Which “area with substrate ENLDFQS” value does the source give for MGESLFKGPYDYNPISSSICHLTNESDGHTTSLYGIGFGPFIITNKHLFRRNNGTLVVQSLHGVFKVKDTTTLQQHLVDGRDMIIIRMPKDFPPFPQKLKFREPQREERICLVTTNFQTKSMSSMVSDTSCTFPSGDGIFWKHWIQTKDGQCGSPLVSTRDGFIVGIHSASNFTNTNNYFTSVPKNFMELLTNQEAQQWVSGWRLNADSVLWGGHKVFMVKPEEPFQPVKEATQL [R10Y] here?
Answer: The value was 0.055.

Question: What about the “area with substrate ENLEFQS” value of the same variant?
Answer: The value was 0.0513.

Question: And the “area with substrate ENLFFQS” value?
Answer: The value was 0.0776.

Question: And the “area with substrate ENLKFQS” value?
Answer: The value was 0.0777.

Question: And the “area with substrate ENLLFQS” value?
Answer: The value was 0.0616.

Question: What about the “area with substrate ENLMFQS” value of the same variant?
Answer: The value was 0.0698.

Question: What about the “area with substrate ENLNFQS” value of the same variant?
Answer: Its value is 0.0716.

Question: And the “area with substrate ENLPFQS” value?
Answer: The value was 0.0686.

Question: What about the “area with substrate ENLQFQS” value of the same variant?
Answer: Its value is 0.0842.

Question: What about the “area with substrate ENLRFQS” value of the same variant?
Answer: Its value is 0.0651.

Question: And the “area with substrate ENLSFQS” value?
Answer: Its value is 0.0564.

Question: What about the “area with substrate ENLVFQS” value of the same variant?
Answer: Its value is 0.0759.

Question: What about the “area with substrate ENLWFQS” value of the same variant?
Answer: Its value is 0.058.

Question: Which “area with substrate ENLDFQS” value does the source give for MRESLFKGPRDYNPISSSICHLTNESDGHTTSLYGIGFGPFIITNKHLFRRNNGTLVVQSLHGVFKVKDTTTLQQHLVDGRDMIIIRMPKDFPPFPQKLKFREPQREERICLVTTNFQTKSMSSMVSDTSCTFPSGDGIFWKHWIQTKDGQCGSPLVSTRDGFIVGIHSASNFTNTNNYFTSVPKNFMELLTNQEAQQWVSGWRLNADSVLWGGHKVFMVKPEEPFQPVKEATQL [G2R] here?
Answer: The value was 0.0575.

Question: What about the “area with substrate ENLEFQS” value of the same variant?
Answer: The value was 0.0622.

Question: And the “area with substrate ENLFFQS” value?
Answer: Its value is 0.107.

Question: And the “area with substrate ENLHFQS” value?
Answer: The value was 0.0723.

Question: And the “area with substrate ENLIFQS” value?
Answer: The value was 0.11.

Question: And the “area with substrate ENLPFQS” value?
Answer: The value was 0.0676.

Question: What about the “area with substrate ENLVFQS” value of the same variant?
Answer: The value was 0.0701.
